The text below walks through data of article PMC12136788.

This is one part of the list.

T1: UNK ZnF1-3 (human, UniProt Q9C0B0 31-174)
T1 sequence: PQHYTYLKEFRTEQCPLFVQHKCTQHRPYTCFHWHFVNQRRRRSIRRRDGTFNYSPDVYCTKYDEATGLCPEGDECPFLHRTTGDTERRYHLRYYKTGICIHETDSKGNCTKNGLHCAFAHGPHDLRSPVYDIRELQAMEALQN

B1: chr7:90019461:90019462:+_ENSMUSG00000057706_ENSMUST00000082237|mus_hu|motif|central (ssRNA)
RNA: GGGAGUUCUACAGUCCGACGAUCCGUCACAAUUGUGUGAUUAUUAAAAUAAUACAGUGUUCUUUGCCAUAAGGCCAUACGGAAAUAAAAAGAUUUAACCCAGCUACAAAAAAGUUCACUGAACUUAAAUUAAAAUACUUGUAACAACAGAGGAUUGAGCAUCA
B2: 44746294_44746414_122_CDS_ENSMUSG00000022668_ENSMUST00000162512|mouse|control|control (ssRNA)
RNA: GGGAGUUCUACAGUCCGACGAUCCCGCAGCGGGUACACUACCUUCGUUAGCUGUUUCUGUGGCAGCCUUAGCACUUCUGCGAAGGCAGGGGACGUGCUGUAAACCCGGGUCCAAGGCCCCAGUGCUGGCGCUUUCUCAAGGAGCAACAGAGGAUUGAGCAUCA
B3: chr16:13788901:13788902:+_ENSMUSG00000022682_ENSMUST00000023363|mus_mus|motif|central (ssRNA)
RNA: GGGAGUUCUACAGUCCGACGAUCGAUGUUUAUAAGUUGCUCAAAGUCUUUUGUCAAGUACAUGACAGAGGAACGAAAUUCGGGUAGCCAGUUAAUGAUCUGGUCAUCCUUUAUAUCAGGAUCAGACAGCUGGUUCUUCAACAACAACAGAGGAUUGAGCAUCA
B4: chr2:5814250:5814251:-_ENSMUSG00000025816_ENSMUST00000102981|mus_hu|mus_mus_mus_hu_True|78_78 (ssRNA)
RNA: GGGAGUUCUACAGUCCGACGAUCUUCCUUUCCGGUUUCUGAAUUUCUGGUAGAACUGCACAGAAAGGUUUGAUAACUUCUAAAAAUUUGAUGCCCAUGGCUGCUGCUGGGGAGGCCCAGGGGGAAACCGCGGCCUCGGCGCUGCAACAGAGGAUUGAGCAUCA
B5: chr17:87832841:87832842:-_ENSMUSG00000036438_ENSMUST00000040440|perfect_dup|FALSE|FALSE (ssRNA)
RNA: GGGAGUUCUACAGUCCGACGAUCUAUACAACUUGGAAUGGAUUUUGAGGCAAAUUGUGCCAUAAGCAGAUUUUAAGUGGCUAAACAAAGUUUAAAAAGCAAGUAACAAUAAAAGAAAAUGUUUCUGGUACAGGACCAGCAGUACAACAGAGGAUUGAGCAUCA
B6: chr14:102368134:102368135:+_ENSG00000078304_ENST00000445439|hu_hu|FALSE|FALSE (ssRNA)
RNA: GGGAGUUCUACAGUCCGACGAUCGAGGGGUUCCAUGAUCUUCACAAAUUCUGAUGGUUCAAUGACAUCUAAAAUCUCUUCUAAUUCGUUUAAGAACAUUACUUCUUUUGGACUGUGAGUCUUUGGCCAGUAUUUGAGAAGUGCCAACAGAGGAUUGAGCAUCA
B7: 137498895_137499015_2185_CDS_ENSG00000112983_ENST00000230901|human|control|control (ssRNA)
RNA: GGGAGUUCUACAGUCCGACGAUCGCCAUCAUCACUCUCGCUCACAGGAGGUUCAUUAUCCAUUUCUGACAAGUAGCCUUCUCCUUGAUCCUCUUCCUUAGGCUCCUCUAGGCUGGCCGCUUCACUGACACCAUCUUCCUCCUCCAACAGAGGAUUGAGCAUCA
B8: chr2:181286759:181286760:+_ENSMUSG00000000826_ENSMUST00000072334|mus_hu|motif|central (ssRNA)
RNA: GGGAGUUCUACAGUCCGACGAUCGCUGCACUAACAACAUAGAGAACUAGGAAAGUUCACAAACACUGAGCAGUAAUAUCGGAAGCAGUUUAAAAAUAAAGCCAAAAGGAAGACAAAAAAAUCCCACGUCACUGAGUGGAGACACAACAGAGGAUUGAGCAUCA
B9: chr2:38870607:38870608:+_ENSMUSG00000026755_ENSMUST00000090993|perfect_dup|motif|central (ssRNA)
RNA: GGGAGUUCUACAGUCCGACGAUCGUCUUUUUAUUUUUUUUAAACAGUCUUUCUUGCUGUAAGAACUCUUAUAAUGGAGCCGGGUCCUCCUACUGCUAAGGCCUUUUCGUGCCACUGGAGUAACACUGCGCUGCUAUUUUCUGUCAACAGAGGAUUGAGCAUCA
B10: 116313033_116323945_1268_3pUTR_ENSMUSG00000029516_ENSMUST00000051704|mouse|control|control (ssRNA)
RNA: GGGAGUUCUACAGUCCGACGAUCAAAACUGGAUCAUGCUCUCAUCUAAUUGGUCCUCGUAUCUGUUCAGAAGCGACAGCAAAUCCCCUCCAGGCUGAUAUUCCAUGACCAGGUAAAGGUUAUUUUUGUCCUGAAAGGCGUACUCAACAGAGGAUUGAGCAUCA
B11: 45241262_45242349_214_CDS_ENSG00000142937_ENST00000396651|human|control|control (ssRNA)
RNA: GGGAGUUCUACAGUCCGACGAUCAAUCUUGGUGUUGGCAGCUGGGCGCCCCAACUCAUACUUCCGCUUCUUGUGGUAGGGCUUUCUCUUGCCCCCGGUUUUGCGGCGCUUGUGCCAGUUGUCCCGAGAGAUGCCCAUCGCUCGCAACAGAGGAUUGAGCAUCA
B12: chr14:78183846:78183847:+_ENSG00000119705_ENST00000557342|hu_hu|hu_hu_hu_mus_False|1_18 (ssRNA)
RNA: GGGAGUUCUACAGUCCGACGAUCUCUCAGAAAUCUUUCUUCAUCAGAUGUUUGAGCUCCGUGCAAAGCCUUUGCUCUUUGAGCUUGAACGUGGAUCUAUGGGAGGGAAAGCACUGUAUUUUCCUGUAAUUUUUUUUUCCGAAGCAACAGAGGAUUGAGCAUCA
B13: chr12:1019172:1019173:+_ENSG00000060237_ENST00000535572|hu_mus|FALSE|FALSE (ssRNA)
RNA: GGGAGUUCUACAGUCCGACGAUCGUUCACUGGCCAAGCAUCACUUCAAACAAGCUUGUCCCCACAUCUUCAGUCCUUAUCUUUCACACACAGCUCACAACCCUCCUCAUUCUUUCUGAAACAGAACUUUGUUUUCAACCACUGCAACAGAGGAUUGAGCAUCA
B14: chr12:17277247:17277248:+_ENSMUSG00000020571_ENSMUST00000057288|mus_hu|FALSE|FALSE (ssRNA)
RNA: GGGAGUUCUACAGUCCGACGAUCAAUUCGAUGGAGUUAAUUCGAUCACAUCAUCACUAGAGGAAUACAGACCAUUCACUGCCAGAAAGAAGGUACAGCUCACCAGACCGAGCACCAGGAGAGCCAUGCCGAGCGCCGGGCUACCAACAGAGGAUUGAGCAUCA
B15: chr13:60863204:60863205:+_ENSMUSG00000021559_ENSMUST00000077453|mus_hu|FALSE|FALSE (ssRNA)
RNA: GGGAGUUCUACAGUCCGACGAUCAGUCCAAACAGACCCUGCCCAAGCCAGAGGCUGCCCUCACCGGGAUACAACAGAGCUAAUGGAAUUGUAAGAGGUGCCGCUGUUGCAGCUCGAGGCAUAGGCCUCCUGGCCAUUGCCAUCCAACAGAGGAUUGAGCAUCA
B16: chr16:87451109:87451110:-_ENSG00000140948_ENST00000268616|hu_hu|motif|central (ssRNA)
RNA: GGGAGUUCUACAGUCCGACGAUCCUUCUCCAUGGAGAGCUGCUUAAAGACGGGGUAAUACUUGUGCAAACGCAGUUUCCGGAGCCAGUCUAGAAUCCCAUUCUGCUCCUGGGUCUGAGGGGUCUGCAGACUGGAAGGCAUGAGCAACAGAGGAUUGAGCAUCA
B17: 36662353_36662473_466_3pUTR_ENSG00000101413_ENST00000373433|human|control|control (ssRNA)
RNA: GGGAGUUCUACAGUCCGACGAUCAGACGAUGGGUCCCGCGUGCUUGCGGUGGUGGAUGAGCCAAAGGGACAGGGUCUGCACGCUCUGCUGAGAGUUGCUCAGCUCCGAGAGCUUCUUCUCCAGCGCCGACUCAGAGAAGGAGGCAACAGAGGAUUGAGCAUCA
B18: 41397836_41400616_619_CDS_ENSMUSG00000025764_ENSMUST00000026865|mouse|control|control (ssRNA)
RNA: GGGAGUUCUACAGUCCGACGAUCAUGAUUCAUAUUGUCAUAGCAUCGCUGUUCGAAUUCCUCCAAGACCCUUUCCAUGGUGUACUCGUCCAGCUCCGGCAUCCCCAUCUCCUUAAAUUCUUCAUUGGUUACUUCCAGCCACGCCAACAGAGGAUUGAGCAUCA
B19: 37339268_37339388_916_CDS_ENSMUSG00000035437_ENSMUST00000112920|mouse|control|control (ssRNA)
RNA: GGGAGUUCUACAGUCCGACGAUCAUCAUCUUCUUUUAUUUCUAAAGACACAGAGAAGGUAAAGAUGUCGCUGUCAGGAGUCUGUGGUGCAGCUGUGGCUGAGAGUGGGGUCUGCUUGGCAGAGCGGCGGAAGGCGGUGGCAAACAACAGAGGAUUGAGCAUCA
B20: chr5:146772872:146772873:-_ENSG00000113657_ENST00000343218|hu_hu|motif|central (ssRNA)
RNA: GGGAGUUCUACAGUCCGACGAUCGCUCUGUCCCUGCCUGGCCUUCCCAACCCAGGAAAGAGAAGGAUUUGAAAGCAACACGGAGAAAGAGGCCUGAGCAAACACUGGCACAAUCAAGCAGGUGGAAGAAAUGGUUGGGUCUUGCAACAGAGGAUUGAGCAUCA
B21: 60193790_60193910_1887_CDS_ENSG00000139970_ENST00000267484|human|control|control (ssRNA)
RNA: GGGAGUUCUACAGUCCGACGAUCGGGCAGCUCGGGGCCAGGCUGGGGCUCAGUUGAGGGGUAGUCGAGGAAGGAACCCGGCUCGGCCAGGCCCCGCCGGCUUGGCGCACGCUCCUCGGCCCGGACGCCAGUCUCCUCCCGGAUCAACAGAGGAUUGAGCAUCA
B22: 121703871_121703991_501_3pUTR_ENSMUSG00000042744_ENSMUST00000119892|mouse|control|control (ssRNA)
RNA: GGGAGUUCUACAGUCCGACGAUCAGUCCACGCAAGGCAUUCAGGCGGUAUUCCAGCAGGCGGGCAUAGGCAUUGCUCUGGUUCCCACAAACAGAGCGCAAACGUUCUGCUAAUUCUGUUGGGUUCUUGGUCUCGAAUGUUAAACAACAGAGGAUUGAGCAUCA

The target of this assay is T1, UNK ZnF1-3. The assay is described as follows: nsRBNS (natural sequence RNA bind-n-seq); RBNS binding buffer (assumed for nsRBNS): 25 mM Tris pH 7.5, 150 mM KCl, 3 mM MgCl2, 0.01% Triton X-100, 500 ug/ml BSA, 20 U/ml SUPERase-In, 4 C; UNK is unkempt and MSI1 is Musashi-1; names of the RNAs are library labels; protein concentration not given here; high values mean tight binding.
On to B1, for which the binding signal was determined as 1.45 enrichment R. As for B2, the binding signal is 1.01 enrichment R. The molecule B3 returned a binding signal of 1.01 enrichment R. In the case of B4, the binding signal stood at 1.4 enrichment R. For B5 the value was 0.947 enrichment R; for B6, 0.82 enrichment R. In turn, B7 came in with a binding signal of 0.688 enrichment R. Regarding B8, the binding signal was 2.51 enrichment R. As for B9, the figure is 0.52 enrichment R; as for B10, 0.796 enrichment R.

The molecule B11 came in with a binding signal of 0.428 enrichment R. In turn, B12 gave a binding signal of 0.824 enrichment R. As for B13, the figure is 1.22 enrichment R; as for B14, 1.61 enrichment R; as for B15, 0.908 enrichment R. For B16, the binding signal amounted to 0.838 enrichment R. Turning to B17, the binding signal was 1.54 enrichment R. For B18 the value was 1.08 enrichment R; for B19, 1.64 enrichment R; for B20, 2.99 enrichment R. With B21, the binding signal amounted to 1.05 enrichment R. Molecule B22 registered a binding signal of 1.39 enrichment R.
